Assay results from a compilation of properties of binary mixtures (doi:10.1021/ie0605377).
Some of these densities may be calculated back from excess volumes.

Test: xn = mol fraction of the nth substance listed
Settings: 101 kPa

Compound	mass density (303.02 K, x1 = 1)	mass density (322.41 K, x1 = 1)	mass density (303.02 K, x2 = 0)	mass density (303.02 K, x2 = 0.1024)	mass density (303.02 K, x2 = 0.2554)	mass density (303.02 K, x2 = 0.4878)	mass density (303.02 K, x2 = 0.5514)	mass density (303.02 K, x2 = 0.7615)	mass density (303.02 K, x2 = 0.9441)	mass density (322.41 K, x2 = 0)	mass density (322.41 K, x2 = 0.2243)	mass density (322.41 K, x2 = 0.4481)	mass density (322.41 K, x2 = 0.5104)	mass density (322.41 K, x2 = 0.585)	mass density (322.41 K, x2 = 0.8367)
CC#N + CC[n+]1ccn(C)c1.O=S(=O)([N-]S(=O)(=O)C(F)(F)F)C(F)(F)F	771.3 kg/m3	750 kg/m3	–	–	–	–	–	–	–	–	–	–	–	–	–
CC[n+]1ccn(C)c1.O=S(=O)([N-]S(=O)(=O)C(F)(F)F)C(F)(F)F + CC#N	–	–	1513.7 kg/m3	1498.2 kg/m3	1467.9 kg/m3	1397.3 kg/m3	1369.2 kg/m3	1224.6 kg/m3	939.1 kg/m3	1494.2 kg/m3	1456.5 kg/m3	1394.2 kg/m3	1369.7 kg/m3	1333.9 kg/m3	1116.5 kg/m3
